# Data taken from the supplement of paper PMC10338343.
# ± gives the standard deviation. Over roughly 6,600 sequences, “pre-steady-state target cleavage rate” has its median near 0.07; the highest 2% begin near 0.72. The entries are a selection whose mix differs from that of the whole data set.
# Tested on: MIWI (PIWIL1) piRISC loaded with Kctd7 piRNA (30 nt)
# Experiment: pre-steady-state target cleavage rate (min^-1); MIWI and MILI are mouse PIWI proteins and EfPiwi is from a freshwater sponge; tags in brackets are library labels; higher = faster piRNA-guided slicing of the target
# Conditions: guide: Kctd7 piRNA 5'p-UGUUAAUCUCUCAGAGAAGGUGACAGUGAU; auxiliary factor: 500 nM mouse GTSF1
# In short: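 Cleave-'n-Seq used a transcribed, DNA-blocked target RNA library at 0.1 nM and active affinity-purified piRISC with one synthetic guide at 1 nM, with or without 500 nM GTSF1 partner protein, in HEPES–potassium acetate buffer at 33 °C for 0–8 or 0–960 min. Uncleaved targets were sequenced and normalised to depth and to weakly complementary targets, and three trials were pooled with k3 capped at 0.0001 min^-1. The pre-steady-state cleavage rate was estimated by a burst-and-steady-state fit.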
row,Sequence,pre-steady-state target cleavage rate
1,UUCACUGUCACCUUCACUGAGAGAUAAACA,0.247 ± 0.029
2,UAGUGUGUCACCUUCUCUCAGAGAUUAUCA,0.0377 ± 0.011
3,UUCACUGUCUCCUUCUCUGAGAGAUUAUCA,0.231 ± 0.035
4,UAGACUGUCACCAUCUCUGAGAGAUUAUGA,0.0129 ± 0.0051
5,UAGUGACACUCCUUCACUGAGAGAUUAACA,0.165 ± 0.018
6,AUCAGUGUCACCUUCACUGAGAGAUUAACA,0.569 ± 0.03
7,UAGACUGUCACCUUCACUGAGAGAUUUACA,0.361 ± 0.048
8,UUCACUGUCACCUUCUCUGUGAGUUUAACA,0.117 ± 0.014
9,UACACUGUCACCUUCUCUGAGAGAUUUAGA,0.0777 ± 0.022
10,UACACAGUCACCUUCUCUGAGAGAUAUUGA,0.039 ± 0.015
11,UAGUGAGUCUCCUUCUCUGAGAGAUUUACA,0.0124 ± 0.0051
12,UACACUGUCACCUUCUCUCAGAGAUUAUCA,0.0407 ± 0.011
13,UACACUGUCCCUUCUCUGAGAGAUUAACA,0.609 ± 0.04
14,UACACUGACACCUUCUCUGAGAGUUUAACA,0.904 ± 0.3
15,UACACUGUCACCUUCUCUGAGAGUUAUUGA,0.134 ± 0.039
16,UAGACUGUCUCCUUCUCUGAGAGAUAAACA,0.354 ± 0.048
17,UAGUGACUCAACCUUCUCUGAGAGAUUAACA,0.173 ± 0.018
18,UAGUGACAGUCCAUUCUCUGAGAGAUUAACA,0.127 ± 0.015
19,UAGUGAGUGACCUUCUCUGAGAGAAUAACA,0.141 ± 0.028
20,UAGUGACAGACCUUCUCUGUGAGAUUUACA,0.0147 ± 0.0053
21,UAGUGACACACCCUUCUCUGAGAGAUUAACA,0.153 ± 0.021
22,UAGUGUGUCACCUUCUCUGGGAGAUUAACA,0.329 ± 0.024
23,UUCACUGUCACGUACUCUGAGAGAUUAACA,0.441 ± 0.033

row,Sequence,pre-steady-state target cleavage rate
1,UAGACUGUCACCUUGUGUGAGAGAUUAACA,0.133 ± 0.0079
2,UAGUGUGUCACCUUCACUGAGAGAUUAAGA,0.11 ± 0.026
3,UAGUGUGUCACCUUCUCUGAGAAUUAACA,0.0771 ± 0.028
4,UAGUCAGUCACCUUCUCUGAGAGAUAAACA,0.343 ± 0.024
5,UAGACUGUCACCUUCACUGAGAGAUAUUGA,0.0458 ± 0.011
6,UAGUGACUGACCUUCUCUGAGAGAUUUACA,0.236 ± 0.03
7,UACACUGUCACCUUCUCGGAGAGAUUAACA,0.289 ± 0.023
8,UAGUGACACACCUUCUCUGAGAGAUUUACA,0.279 ± 0.038
9,UAGUGACACACCUUCUCAGAGAGAUUUACA,0.0386 ± 0.0096
10,UAGACUGUCACCAUCUCUGAGAGAUAAACA,0.289 ± 0.033
11,UAGUGUGUCACCUUCUCUGGAGAUUAACA,0.195 ± 0.018
12,UACACUGUCACCAACUCUGAGAGAUUAACA,0.391 ± 0.033
13,UACACAGUCACCUUCUCUGAGAGAUUUACA,0.398 ± 0.053
14,UACACUGUCACCUUCUCUGAGAGAUUAUGA,0.0837 ± 0.024
15,UAGUGACACACCUUCUCUGAGAAGAUUAACA,0.0206 ± 0.0043
16,AUCACUGUCAGGUUCUCUGAGAGAUUAACA,0.653 ± 0.043
17,UUCACUGUCACCUUGUCUGAGAGUUUAACA,0.422 ± 0.077
18,UAGUGAGACACCUUCUCUCAGAGAUUAACA,0.0322 ± 0.0045
19,AUCACUGUCACCUUCUCUGAGUGUUUAACA,0.0429 ± 0.0084
20,UAGUGUGUCACCUUCUCUGAGAGAUCAACA,0.207 ± 0.029
21,UAGUGACUCACCUUCACUCAGAGAUUAACA,0.00579 ± 0.0035
22,UAGUGACAGAGCUUCUCUGAGAGUUUAACA,0.018 ± 0.0046
23,UAGACUGUCACGUUCUCUGAGAGAUUUACA,0.13 ± 0.02

row,Sequence,pre-steady-state target cleavage rate
1,UACACUGUCUCCUUCUCUGAGAGUUUAACA,0.452 ± 0.064
2,UAGUGACUCACCUACUCAGAGAGAUUAACA,0.0146 ± 0.0038
3,UAGACUGUCACCUUCACUGAGAGUUUAACA,0.339 ± 0.051
4,AUGACUGUCACCUUCUCUGAGAGAUUUACA,0.402 ± 0.049
5,UAGUGACUCACCUUCACUGAGAGAUUAUGA,0.0295 ± 0.0095
6,UAGUGACACACCUUCACUGAGAGAUUUACA,0.166 ± 0.035
7,UAGACUGUGACCUUCUCUGAGAGAUAAACA,0.279 ± 0.031
8,UACACUGUCUCCUACUCUGAGAGAUUAACA,0.571 ± 0.026
9,UAGUCGGUCACCUUCUCUGAGAGAUUAACA,0.73 ± 0.037
10,UAGUCUGUCACCUUCAUCUGAGAGAUUAACA,0.136 ± 0.032
11,UAGUGUGACACCUUCUCUGUGAGAUUAACA,0.159 ± 0.014
12,UAGUGUGUCACCUUCUCUGAGAGAUUAGCA,0.187 ± 0.023
13,UACUCUGUCAGCUUCUCUGAGAGAUUAACA,0.628 ± 0.03
14,UACACUGUCACCUUCUCUGAGACAUUAUCA,0.0386 ± 0.011
15,UAGUGAGUCACGUUCUCUGAGAGAUUAUCA,0.221 ± 0.031
16,UAGUGACUCUCCUUCUCUGAGAGAAUAACA,0.00661 ± 0.0021
17,AUCACUGUCACCUUUUCUGAGAGAUUAACA,0.748 ± 0.029
18,UACACAGUCACCUUCUCUGACAGAUUAACA,0.482 ± 0.036
19,UAGACUGUCACCUUUCUCUGAGAGAUUAACA,0.538 ± 0.039
20,AUCACUGUCACCUUCACAGAGAGAUUAACA,0.088 ± 0.017
21,UACACUGUCACCUUCAGAGAGAGAUUUUGA,0.046 ± 0.024
22,UACACUCUCACCUUCUCUGAGAGAAUAACA,0.132 ± 0.019
23,UACAUGUCACCUUCUCUGAGAGAUUAACA,0.451 ± 0.026

row,Sequence,pre-steady-state target cleavage rate
1,AUCACUGUCUCCUUCUCUGAGAGAUUAACA,0.697 ± 0.042
2,AUCACUGUCAGCUUCUCUGAGAGAUUUACA,0.27 ± 0.035
3,UAGUGACUCACCUUCUCUGAGAGAUAAUCA,0.128 ± 0.026
4,UAGACUGUCACCUUCACUGAGACAUUAACA,0.233 ± 0.028
5,UAGUGACAGUCCUUGUCUGAGAGAUAAACA,0.0114 ± 0.0038
6,UAGUCUGUCACGUUGUCUGAGAGAUUAACA,0.29 ± 0.02
7,UAGUGACAGUCCUUGUCUGAGAGAUUAACA,0.0135 ± 0.0024
8,UAGUGUGUCACCUUCUCUGAAAGAUUAACA,0.395 ± 0.02
9,UAGUGAGUCACCUUCUCUGAGAGAAAUAGA,0.0114 ± 0.006
10,UAGUGAGUCUCCUUCUCUGACAGAUUAACA,0.376 ± 0.031
11,UAGUGAGUCACCUUCUCAGUGAGAUUAACA,0.0258 ± 0.0056
12,UACACUGUCACCUUCUCAGAGAGAUUUUGA,0.0831 ± 0.026
13,UAGACUGUCACCUUCUCUGAGAGAUUCAACA,0.306 ± 0.048
14,UUCACUGUCACACUUCUCUGAGAGAUUAACA,0.614 ± 0.03
15,UAGUCUGUACACCUUCUCUGAGAGAUUAACA,0.671 ± 0.042
16,UUCACUGUCACCUUCUCUGUCAGAUUAACA,0.0116 ± 0.0029
17,UAGUGUGUCACCUUCUCUGACUGAUUAACA,0.0144 ± 0.0043
18,UUCACUGUCACCUUCUGUGAGAGAUUAACA,0.601 ± 0.028
19,UUCACACUCACCUUCUCUGAGAGAUUAAGA,0.0911 ± 0.016
20,UAGACUGUCACCUUCUCUGAGGAUUAACA,0.00433 ± 0.0033
21,UAGUGACACACCUUCUCUGAGAGAUUGAACA,0.218 ± 0.033
22,UAGUGACACCCUUCUCUGAGAGAUUAACA,0.192 ± 0.026
23,UAGUCUGUCACCUUCUCUGUGAGAUUAACA,0.295 ± 0.012
